Laboratory results taken from the supplement of paper PMC4723716.
± gives the uncertainty stated by the source. Over roughly 9,900 compounds, “viability index relative to DMSO control” has its median near 1; the lowest 2% begin near 0.85. This is one part of the list.

Test system: Plasmodium falciparum NF54 stage V gametocytes
Experiment: viability index relative to DMSO control (fraction); higher = less gametocyte killing
Settings: 2.5 µM, library set: Broad Institute DOS, incubation time: 72 h
Procedure, shortened: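 Viability index is the count of red-stained particles in a well divided by the plate mean of solvent-only wells. Particles of 20–70 µm2 were counted in one imaged field per well after one to two hours with 3 µl of 2.5 µM MitoTracker Red CMXRos and 0.13% saponin. Before staining, P. falciparum NF54 stage V gametocytes in serum-free medium (0.75% gametocytemia, 1.25% hematocrit, 10 µl, 1,536-well plates) were kept with compound at 2.5 µM for 72 hr at 37°C under low oxygen.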

Row | SMILES | viability index
1 | O=C(c1cccnc1)N1CC2(C1)[C@H](c1ccccc1)[C@H](CO)N2Cc1ccc(Cl)cc1 | 1.101 ± 0.0023
2 | C[C@H](CO)N1C[C@H](C)[C@H](CN(C)C(=O)CCCN(C)C)OCCCC[C@H](C)Oc2ccc(NS(=O)(=O)c3ccc(Cl)cc3)cc2C1=O | 1.09 ± 0.12
3 | C[C@H](CO)N1C[C@H](C)[C@@H](CN(C)Cc2cccnc2)OCc2ccccc2-c2ccccc2C1=O | 1.01 ± 0.051
4 | C[C@@H]1CCn2cc(nn2)COC[C@H](Cc2ccccc2)NC1=O | 0.981 ± 0.038
5 | C[C@H](CO)N1C[C@H](C)[C@H](CN(C)Cc2cccnc2)OCc2ccccc2-c2ccccc2C1=O | 0.995 ± 0.086
6 | O=C(C1CCOCC1)N1CC(=O)N2[C@H](C1)[C@H](c1ccc(C#CC3CCCCC3)cc1)[C@@H]2CO | 1.03 ± 0.018
7 | COc1ccc(CN(C)C[C@H]2OCCCC[C@H](C)Oc3ccc(NC(=O)C4CCCCC4)cc3C(=O)N([C@H](C)CO)C[C@@H]2C)cc1 | 1.02 ± 0.012
8 | CO[C@H]1CN(C)C(=O)c2ccc(NC(C)=O)cc2OC[C@@H](C)N(C(=O)c2cnccn2)C[C@H]1C | 1 ± 0.018
9 | COCC(=O)N1[C@H](CO)[C@H](c2ccccc2-c2cccc(C)c2)[C@@H]1C#N | 1.06 ± 0.063
10 | C[C@@H]1CN([C@H](C)CO)C(=O)CCCn2cc(nn2)CO[C@H]1CN(C)C(=O)CCC(F)(F)F | 0.988 ± 0.084
11 | COCC#Cc1ccc([C@@H]2[C@@H](CO)N3C(=O)CN(C(=O)C4CCCCC4)C[C@H]23)cc1 | 1.02 ± 0.034
12 | O=C1CNC[C@@H]2[C@@H](c3ccc(-c4ccccc4F)cc3)[C@H](CO)N12 | 1.01 ± 0.058
13 | O=C(CC1CC1)N1CC2(C1)[C@H](c1ccccc1)[C@@H](CO)N2Cc1ccccn1 | 1.07 ± 0.077
14 | C[C@@H]1CN([C@H](C)CO)C(=O)c2ccccc2-c2ccccc2CO[C@@H]1CN(C)C(=O)c1cc(Cl)cc(Cl)c1 | 0.8517 ± 0.003
15 | O=C(N[C@@H]1C=C[C@@H](CC(=O)N2CCC(Cc3ccccc3)CC2)O[C@H]1CO)c1cnccn1 | 0.984 ± 0.033
16 | O=C(C[C@H]1C[C@@H]2c3cc(NC(=O)C4CCC4)ccc3O[C@@H]2[C@H](CO)O1)NC1CCCC1 | 1.1 ± 0.11
17 | C[C@@H]1CCCCO[C@@H](CN(C)C(=O)NC2CCCCC2)[C@H](C)CN([C@@H](C)CO)C(=O)c2cc(N(C)C)ccc2O1 | 1.12 ± 0.13
18 | CCS(=O)(=O)N1CCCCN2[C@H](C1)[C@@H](c1ccc(-c3ccc(C(=O)N(C)C)cc3)cc1)[C@@H]2CO | 0.982 ± 0.1
19 | COCC(=O)N1[C@H](C#N)[C@H](c2ccc(C#CCC3CCCC3)cc2)[C@@H]1CO | 1.06 ± 0.089
20 | C/C=C/c1ccc2n(c1=O)C[C@H]1N[C@@H]2[C@@H](C(=O)NC2CCCC2)[C@@H]1CO.C/C=C\c1ccc2n(c1=O)C[C@H]1N[C@@H]2[C@@H](C(=O)NC2CCCC2)[C@@H]1CO | 1.01 ± 0.11
